The other results are listed elsewhere or left out.
Each sequence was assayed on PfAP2-HC AP2 domain (GST-tagged) (assay: gcPBM binding intensity (ln(normalized median fluorescence intensity)); higher = stronger DNA binding).
In short: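 GST-tagged P. falciparum DNA-binding domains produced in E. coli were incubated for 1 h on an Agilent 4 × 180k array of primer-extended double-stranded 36-bp intergenic genomic probes with negative controls. Binding intensity is the highest Masliner-normalised natural-log median intensity across replicate spots of either probe orientation, with bound protein detected by Alexa488 anti-GST antibody at 488 nm.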
For “CACATTTTTTAAATATTTTTCTACTCCATAATGTTT [CACACA_negctrl_site557]”, the “gcPBM binding intensity (ln)” value was 9.75. With “TATAATTATGATGATAGTACGTATGAGTTCAAAACA [XGTACX_site4211]” the “gcPBM binding intensity (ln)” value was 9.68. For “TTAATATAGGGAAAAAAAAGAAAATCGAAAATGTGT [CACACA_negctrl_site834]”, the “gcPBM binding intensity (ln)” value was 9.57. For “ATAGTTACACGCCAAAAAAAAAAAAAAAAAAAAAAA [CACACA_negctrl_site1133]”, the “gcPBM binding intensity (ln)” value was 9.04. “TAACTTCAAAAATCTTGTACATAAATATATAAAACA [XGTACX_site8574]” was tested, and the “gcPBM binding intensity (ln)” value was 9.41. “AATTTTGTCCTATGTTGTACTATTTTGCTCTATTTT [XGTACX_site7139]” was tested, and the “gcPBM binding intensity (ln)” value was 10. In the case of “TTTTTTTTTTAGAGTACACACTTTTTTACATTTATG [CACACA_site5990]”, the “gcPBM binding intensity (ln)” value was 9.7. “TCTTGATCTTATATATATCTACAATATTTTATACAT [TGCATGCA_negctrl_site569]” was tested, and the “gcPBM binding intensity (ln)” value was 10.2. For “ATTACAAATATAATATGTACTTAAATATAATTAAAA [XGTACX_site7038]”, the “gcPBM binding intensity (ln)” value was 9.52. With “ATTACTAAAACAAAATGTACATATGATTTAAGAAAA [XGTACX_site5992]” the “gcPBM binding intensity (ln)” value was 9.66. “CAAAAAAAATTATACACACACACACCCATATATATA [CACACA_site1044]” was tested, and the “gcPBM binding intensity (ln)” value was 10.6. In the case of “AAGAAAATTAACCCATGTACTTATGTAGATAGCAAG [XGTACX_site1049]”, the “gcPBM binding intensity (ln)” value was 9.87. With “TACTATATATTATATAGTACATAAGATATACAACAT [XGTACX_site2929]” the “gcPBM binding intensity (ln)” value was 9.69. With “TAAAACTTAATATAAACACACAAAAATTAATAAATA [CACACA_site4370]” the “gcPBM binding intensity (ln)” value was 9.87. With “CAATATTATAGATATACACACATAATGTGTAAAAAC [CACACA_site6631]” the “gcPBM binding intensity (ln)” value was 9.96. In the case of “ATATATATATATATTGCACACATATAAATATATATA [CACACA_site8167]”, the “gcPBM binding intensity (ln)” value was 9.69. “GAAAAATTTAATTATTGTACGTTTCATCTATATTTA [XGTACX_site414]” was tested, and the “gcPBM binding intensity (ln)” value was 9.7. “TTTTTGTTTTTTTTGTGTACTTATCAAATATATATA [XGTACX_site7273]” was tested, and the “gcPBM binding intensity (ln)” value was 9.82. With “ATCATTTATATTTTATGTACATATATAATTATATTT [XGTACX_site2129]” the “gcPBM binding intensity (ln)” value was 9.92. In the case of “AAAAAAATAAATAAATGTACACATATATATATATAT [XGTACX_site4350]”, the “gcPBM binding intensity (ln)” value was 9.81. In the case of “TAGAGGAATATAATATGTACATAATATAATGTATAT [XGTACX_site2838]”, the “gcPBM binding intensity (ln)” value was 9.86. With “TTATGTCTAATGAAATGTACATGAATAAATTAAAGT [XGTACX_site8138]” the “gcPBM binding intensity (ln)” value was 9.78. In the case of “AGTGAAATTTTAGTCACACAGTTTTATCTTTAAGAA [CACACA_site5202]”, the “gcPBM binding intensity (ln)” value was 9.51. “AATTATATAAGCCACGCATGTGTGCATAAAAATACA [TGCATGCA_site114]” was tested, and the “gcPBM binding intensity (ln)” value was 9.79. “AATGAGAATTTTATTACACACTTTAATATATTTTCA [CACACA_site784]” was tested, and the “gcPBM binding intensity (ln)” value was 9.66. For “AATTTTCAATAGTATACACACAATTCTATAAATATA [CACACA_site6650]”, the “gcPBM binding intensity (ln)” value was 9.61. In the case of “CACGTGAAAATACAAGCATGCAAGCTTTTTTTTTCT [TGCATGCA_site642]”, the “gcPBM binding intensity (ln)” value was 9.46. With “AATTTTTTTATAGCACGTACAAAAATACAAAATACA [XGTACX_site1569]” the “gcPBM binding intensity (ln)” value was 9.51. With “AAAAAAAAAAAGAAGGGTACATATTATATATAATAT [XGTACX_site6204]” the “gcPBM binding intensity (ln)” value was 9.66. With “TATATATAAACATAATGTACATATAATAAGTAATAT [XGTACX_site497]” the “gcPBM binding intensity (ln)” value was 9.8. With “AGCCCAAAAAAGTAGACATGCAAAAACTTTACAACT [TGCATGCA_site550]” the “gcPBM binding intensity (ln)” value was 9.57. With “CGATTACTAATTTTTAGTACATATAATCAATATGTA [XGTACX_site7857]” the “gcPBM binding intensity (ln)” value was 9.58. In the case of “ATCTATTTCTATTGTTGTACTTATTTTTCATTGTTT [XGTACX_site6942]”, the “gcPBM binding intensity (ln)” value was 9.94. “ATGTAGCCTTACGCTTGTACGAATATCTTAATTTTT [XGTACX_site4331]” was tested, and the “gcPBM binding intensity (ln)” value was 9.67. In the case of “AAAAAAAATAGACACACACACATACACATAAATATA [CACACA_site7742]”, the “gcPBM binding intensity (ln)” value was 10.5. “AGGGTTACAAGAGGAACACACAAAAAAATAAATAAA [CACACA_site1436]” was tested, and the “gcPBM binding intensity (ln)” value was 10. For “ATTAAATCTATATATACACACATGTTTGGTATATTC [CACACA_site2657]”, the “gcPBM binding intensity (ln)” value was 9.87. In the case of “TTTGTAATAAACTACTTTTTTTTTTTTTTTTTTTTT [CACACA_negctrl_site571]”, the “gcPBM binding intensity (ln)” value was 9.2. “TTTATATTACAATAATATATTAAAAAATAAAATATA [TGCATGCA_negctrl_site18]” was tested, and the “gcPBM binding intensity (ln)” value was 9.17. “TATACAATATAAAATACACACGCACCCAAAAAAAAA [CACACA_site9174]” was tested, and the “gcPBM binding intensity (ln)” value was 10.3. For “ATTTTTTTATTTGATTGTACAATTTTCTTTCAAAAT [XGTACX_site2902]”, the “gcPBM binding intensity (ln)” value was 9.71. With “ATATAATGTGTAGGCCGTATTTACGTTTGGCAATCA [CACACA_negctrl_site1130]” the “gcPBM binding intensity (ln)” value was 9.99. In the case of “TATAATATAATATATATATATATATATATATAAGAA [CACACA_negctrl_site78]”, the “gcPBM binding intensity (ln)” value was 9.76. For “TTCATATAAATACATGCACACAAAAATATCAATACA [CACACA_site8753]”, the “gcPBM binding intensity (ln)” value was 10. In the case of “ATATATTTTATTACCAGTACATATATTAAAATAATA [XGTACX_site8440]”, the “gcPBM binding intensity (ln)” value was 9.39. “ATTAAAGAGATATATACACACATTATGGGGGAATAA [CACACA_site6226]” was tested, and the “gcPBM binding intensity (ln)” value was 9.85. “TGAGGAAACATGAGATGTACATATAAATTTTTTTTT [XGTACX_site2595]” was tested, and the “gcPBM binding intensity (ln)” value was 9.56. With “CCTAAATATTTTTTATGTACATATTTATCTAAATTT [XGTACX_site6835]” the “gcPBM binding intensity (ln)” value was 9.78. For “ATAGAAATTATAAATAGTACATAATAAAAATGAGCA [XGTACX_site822]”, the “gcPBM binding intensity (ln)” value was 10. For “TCGTTTCCTTAAAATTGTACTTTTTTTTTTTTTTTT [XGTACX_site64]”, the “gcPBM binding intensity (ln)” value was 9.56. In the case of “TATTATAAAGAAATTACACACATGCAATGAAAAAAA [CACACA_site1697]”, the “gcPBM binding intensity (ln)” value was 9.85. In the case of “AGAGTATATATATATGCATGCATATCTCATATTTAT [TGCATGCA_site509]”, the “gcPBM binding intensity (ln)” value was 9.94. With “TAATGATAAATACATACACACAAAAAATAATATATA [CACACA_site2576]” the “gcPBM binding intensity (ln)” value was 10.1. With “TGTTATTATTTGTACACACACATATAGATCCTTGTT [CACACA_site7667]” the “gcPBM binding intensity (ln)” value was 10.2. For “AAACAAAATGGTAACACACACATATATAAATATGTA [CACACA_site6994]”, the “gcPBM binding intensity (ln)” value was 10.2. In the case of “TAAGAAATAAATAGTACACACATAGACACCCACCCA [CACACA_site8429]”, the “gcPBM binding intensity (ln)” value was 11.3.

Source: the supplement of paper PMC11417369
